Results: PubChem BioAssay AID1460 (National Center for Advancing Translational Sciences (NCATS), 2008)
The campaign covered roughly 270,000 compounds. About 5,800 (2.1%) were called active. Inconclusive means that the source gave no clear call. Such entries were picked first, then a sample of the others. Calls come from the whole dose curve; as a rule, active = well fitted inhibition curve with a large enough effect; inconclusive = small, poorly fitted or top-dose-only effect; inactive = flat fitted curve, though single readings scatter. Potencies of inconclusive entries are doubtful fits and often do not repeat.

biological target: Microtubule-associated protein tau (Homo sapiens) (UniProt P10636); test: qHTS for Inhibitors of Tau Fibril Formation, Thioflavin T Binding; conditions: recombinant tau K18 P301L (four-repeat tau fragment), heparin-induced fibrillization, ThT fluorescence; series mostly up to 57.4 µM; note: nearly all actives have a fitted effect of over 55% in size
UniProt P10636, sequence (P10636 whole entry, looked up, the tested form may be a part): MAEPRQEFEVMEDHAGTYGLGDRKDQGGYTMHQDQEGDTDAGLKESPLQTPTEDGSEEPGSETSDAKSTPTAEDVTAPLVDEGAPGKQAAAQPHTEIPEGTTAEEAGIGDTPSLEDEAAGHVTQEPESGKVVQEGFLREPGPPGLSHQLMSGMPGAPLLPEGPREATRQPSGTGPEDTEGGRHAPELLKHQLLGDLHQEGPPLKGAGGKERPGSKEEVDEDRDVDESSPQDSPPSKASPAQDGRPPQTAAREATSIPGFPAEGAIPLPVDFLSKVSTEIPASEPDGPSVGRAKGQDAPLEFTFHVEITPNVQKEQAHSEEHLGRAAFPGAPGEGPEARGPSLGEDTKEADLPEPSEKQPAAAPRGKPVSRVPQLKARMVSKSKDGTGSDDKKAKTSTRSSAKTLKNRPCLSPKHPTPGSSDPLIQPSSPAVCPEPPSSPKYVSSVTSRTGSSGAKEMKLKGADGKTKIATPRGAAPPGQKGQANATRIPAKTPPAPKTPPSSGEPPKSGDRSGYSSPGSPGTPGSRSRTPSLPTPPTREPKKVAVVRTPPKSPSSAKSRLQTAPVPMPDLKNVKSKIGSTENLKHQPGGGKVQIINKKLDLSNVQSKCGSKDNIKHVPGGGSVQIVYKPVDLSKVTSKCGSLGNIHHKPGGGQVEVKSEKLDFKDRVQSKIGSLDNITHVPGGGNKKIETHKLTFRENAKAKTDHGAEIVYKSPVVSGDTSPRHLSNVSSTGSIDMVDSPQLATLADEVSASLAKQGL
How it was run: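 Recombinant human tau K18 fragment […] carrying P301L, 15 uM unlabeled plus 0.24 uM Alexa 594-labeled, was fibrillized with 20 uM heparin in 100 mM sodium acetate pH 7 for 6 hr at 37 C; 30 uM ThT fluorescence read after 1 hr.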
Potency is the fitted concentration of half-maximal effect; tags give direction and shape of the fitted curve.

SMILES | Potency
O=C(CCc1nc(-c2cccs2)no1)Nc1cnc2ccccc2c1 | inconclusive: 1.41 µM [inhibitor, partial curve]
COc1cc2c(cc1OC)C1CCC3=C([C@H](C)OC3=O)N1CC2 (stereo partly drawn) | inconclusive: 35.5 µM [inhibitor, partial curve]
CCOC(=O)Cc1ccc(NC(=O)NCc2c(-n3cccc3)sc3c2CCCC3)cc1 | inactive
N#Cc1c(N)nc2c(c1N)CC(CO)O2 (stereo not drawn) | inactive
COc1ccc(C(=O)N/N=C2\CCc3ccccc32)cc1OC | inconclusive: 8.91 µM [inhibitor, full curve]
Cc1[nH]n(S(=O)(=O)Cc2ccccc2)c(=O)c1N=Nc1ccccc1Cl | active: 15.8 µM
CCSc1ncc(Cl)c(C(=O)N2CCN(c3ccccc3OC)CC2)n1 | inactive
O=C(O)c1cccc(-c2ccc(/C=N/NC(=O)c3cccnc3)o2)c1 | inconclusive: 15.8 µM [inhibitor, partial curve, poor fit]
CCOc1ccc(C(=O)N2CCN(c3cnn(-c4ccccc4)c(=O)c3Cl)CC2)cc1 | inactive
CCOCCCNC(=O)c1ccc(-n2c(-c3ccccc3)cc3c2CCCC3)cc1 | inconclusive: 15.8 µM [inhibitor, partial curve]
CSc1ccc(S(=O)(=O)NCCSc2ccccn2)cc1 | inconclusive: 7.94 µM [inhibitor, partial curve]
CCCCN(C)C(=O)CCC(=O)Nc1ccc2nc(N3CCOCC3)cc(C)c2c1 | inconclusive: 28.2 µM [inhibitor, partial curve]
O=C(Nc1ccc(N2CCOCC2)cc1)C1CC(O)CN1S(=O)(=O)c1ccc(Cl)cc1 (stereo not drawn) | inconclusive: 22.4 µM [inhibitor, single point]
O=C(N/N=C/c1c[nH]c2ccccc12)c1ccn(Cc2ccc(Cl)cc2Cl)n1 | inconclusive: 8.91 µM [inhibitor, partial curve]
Cc1cc(/C=C2\SC(=Nc3ccc(N4CCOCC4)cc3)N(C)C2=O)c(C)n1-c1cccnc1 | inconclusive: 12.6 µM [inhibitor, partial curve]
C/C=C/c1ccc(OCC(=O)O)c(OC)c1 | inactive
COCCCN(C(=S)Nc1cc(Cl)cc(Cl)c1)C(C)c1ccccn1 (stereo not drawn) | inconclusive: 39.8 µM [inhibitor, single point]
COc1ccccc1S(=O)Cc1ccc(C(=O)NCCc2ccc(Cl)cc2)o1 (stereo not drawn) | inactive
COc1cccc(-n2ccnc2SCC(=O)Nc2c(C)cc(C)cc2C)c1 | inactive
Cc1cc(C)c(NC(=O)Cn2c(=O)c3cccn3c3ccccc32)c(C)c1 | inconclusive: 20 µM [activator, partial curve]
O=C(/C=C/c1cccc([N+](=O)[O-])c1)Nc1cccc(NC(=O)c2ccco2)c1 | inconclusive: 7.94 µM [inhibitor, partial curve]
CC1CCCN(C(=O)c2cc3ccc4cccnc4c3[nH]2)C1 (stereo not drawn) | inconclusive: 15.8 µM [inhibitor, partial curve]
CCN(CC)c1ccc2cc(C(=O)Nc3ccccn3)c(=O)oc2c1 | inconclusive: 2 µM [activator, full curve]

SMILES | Potency
Cc1c(Br)c([N+](=O)[O-])nn1CCCC(=O)N1CCN(c2ccccc2)CC1 | inconclusive: 5.01 µM [inhibitor, full curve]
O=C(OCc1nc2scc(-c3ccccc3)c2c(=O)[nH]1)c1cc([N+](=O)[O-])ccc1Cl | inconclusive: 14.1 µM [inhibitor, partial curve]
O=C(O)c1cnc(-c2ccccc2)nc1C(F)(F)F | inactive
CCCCOc1ccc2c(c1)/C(=C(\C(Cl)=C(Cl)Cl)[N+](=O)[O-])N2 | inconclusive: 17.8 µM [inhibitor, partial curve, poor fit]
COc1cc(Cl)nn(-c2ccccc2)c1=O | inactive
CCn1c(=O)cc(OCC(=O)NCc2ccc(C)o2)c2ccccc21 | inactive
COC(=O)C1=C(C)NC(=O)/C1=C\c1cc(C)n(-c2ccccc2F)c1C | inconclusive: 25.1 µM [inhibitor, partial curve]
Cc1cccc(OCC(=O)Nc2cccc(OCc3cc(=O)n4cccc(C)c4n3)c2)c1 | inconclusive: 0.355 µM [inhibitor, full curve, poor fit]
Cc1cccc2cc(C#N)c(NCCNC(=O)COc3ccccc3)nc12 | inactive
Cc1ccc(-n2c(C)cc(-c3csc(N)n3)c2C)cc1 | inconclusive: 25.1 µM [inhibitor, partial curve]
O=c1cc(-c2ccc(O)cc2)oc2cc(O)cc(O)c12 | active: 15.8 µM
Cc1ccc(NC2=C/C(=N\S(=O)(=O)c3cccs3)c3ccccc3C2=O)c(C)c1 | inconclusive: 10 µM [inhibitor, partial curve]
COc1ccc(CCNC(=O)CCn2c(=O)c3ccccc3n(Cc3ccccc3F)c2=O)cc1OC | inactive
Cc1csc(NC(=O)CSc2nc3sc(C)c(C)c3c(=O)[nH]2)n1 | inconclusive: 31.6 µM [inhibitor, partial curve]
CC(=O)Nc1nc2n(n1)C(c1ccc(F)cc1)C=C(c1ccc(Cl)cc1)N2 (stereo not drawn) | inconclusive: 6.31 µM [inhibitor, partial curve, poor fit]
CCOC(=O)Cc1csc(NC(=O)c2sc3nc4ccc(C)cc4cc3c2N)n1 | active: 3.16 µM
CC(=O)c1ccc(NC(=O)C2(c3ccccc3)CCOCC2)cc1 | inconclusive: 7.94 µM [inhibitor, partial curve]
O=C(Nc1ccc(N2CCCC2)cc1)c1cccc(-c2cc3ccccc3oc2=O)c1 | inconclusive: 25.1 µM [inhibitor, partial curve]
O=C(C(Cc1ccccc1)n1cccc1)N1CCN(c2cccc(Cl)c2)CC1 (stereo not drawn) | inconclusive: 39.8 µM [inhibitor, single point]
CCCOc1ccc(C2=NNC(c3cccs3)=Nc3ccc(OC)cc32)cc1 | inconclusive: 8.91 µM [inhibitor, partial curve]
O=Cc1cn(-c2ccccc2)nc1-c1cc2cc(O)ccc2oc1=O | inconclusive: 1.12 µM [inhibitor, partial curve, poor fit]
COc1ccc(N2CCN(C(=S)Nc3cc(C)cc(C)c3)CC2)cc1 | inactive
COc1ccccc1NC(=O)CSc1c2c(nc3ccccc13)CCC2 | inactive

SMILES | Potency
O=C(NNC1=C(C(=O)C(F)(F)F)CCC1)c1cccc(O)c1 | inactive
CCOC(=O)c1cccc(NC(=O)CSc2nnc(CNc3ccc(C)cc3)n2CC)c1 | inconclusive: 12.6 µM [inhibitor, partial curve]
COc1cccc(C(=O)Nc2cccc(-c3ccc4nncn4n3)c2)c1OC | inconclusive: 28.2 µM [inhibitor, partial curve, poor fit]
O=C(O)c1cc(/C=C/c2ccc(N3CCOCC3)c([N+](=O)[O-])c2)nc2ccccc12 | active: 14.1 µM
CC(C)c1ccc(NC(=O)C2CCN(C(=O)c3ccc(F)cc3)CC2)cc1 | inconclusive: 39.8 µM [inhibitor, single point]
COc1cc(C(=O)Nc2ccccc2-c2nc(-c3ccccc3)no2)cc(OC)c1OC | inconclusive: 17.8 µM [activator, single point]
CC(=O)Nc1ccc2nc(CN3CCN(Cc4ccc(F)cc4)C(CCO)C3)ccc2c1 (stereo not drawn) | inconclusive: 17.8 µM [inhibitor, partial curve]
O=C(c1cc2nc(-c3ccccc3)cc(-c3ccccc3)n2n1)N1CCN(C(=O)c2ccco2)CC1 | inconclusive: 31.6 µM [inhibitor, partial curve, poor fit]
CC(=O)c1ccc(N2CCN(C(=O)c3cc4c(-c5ccccc5F)nn(C)c4s3)CC2)cc1 | inconclusive: 20 µM [inhibitor, partial curve]
O=c1[nH]c(C2CC2)nc2sc3c(c12)CCCC3 | inactive
COc1cccc(C=NCC(C)N=Cc2cccc(OC)c2O)c1O (stereo not drawn) | inconclusive: 17.8 µM [inhibitor, partial curve]
O=C(CSc1nnc2c(n1)[nH]c1ccccc12)Nc1ccc(N2CCOCC2)cc1 | inconclusive: 2.82 µM [inhibitor, partial curve]
CSc1ccc(OC2CCCCC2NS(=O)(=O)c2ccc(Cl)cc2)cc1 (stereo not drawn) | inactive
Cc1ccc(-c2nc(C)c(CCNC(=O)c3cccs3)s2)cc1 | inconclusive: 0.794 µM [inhibitor, full curve, poor fit]
Clc1ccccc1C1=Nn2c(nnc2-c2ccncc2)SC1 | inconclusive: 12.6 µM [inhibitor, partial curve]
CC(=O)c1cccc(NC(=O)C2CCN(S(=O)(=O)c3ccc4c(c3)CCCN4C(C)=O)CC2)c1 | inactive
CC(=O)Oc1ccc(N2C(=O)C3C4C=CC(O4)C3C2=O)cc1 (stereo not drawn) | inconclusive: 31.6 µM [inhibitor, single point]
COc1cc2c(cc1NC(=S)NC(=O)/C=C/c1ccco1)oc1ccccc12 | inconclusive: 5.01 µM [inhibitor, partial curve]
COC(=O)c1ccc(NC(=O)CCN2CCN(CCC(=O)Nc3ccc(C(=O)OC)cc3)CC2)cc1 | inconclusive: 7.08 µM [inhibitor, full curve, poor fit]
O=C(CN1CCC(n2nnc3cc(F)ccc32)CC1)NCc1ccco1 | inactive
Cc1nc2ccccc2cc1OCc1ccc(Cl)cc1 | inconclusive: 25.1 µM [inhibitor, partial curve]
Cc1nn(-c2ccccc2)c2c1C(c1ccc(O)c(O)c1)N1C(=N2)C(Nc2ccccc2)=Nc2ccccc21 (stereo not drawn) | inconclusive: 17.8 µM [inhibitor, partial curve]
